# According to PubChem BioAssay AID686979 (National Center for Advancing Translational Sciences (NCATS), 2013):
# Among all 420,000 compounds or so, about 50,000 (12%) were called active. The shares of active, inactive and inconclusive entries below differ from those in the screen. Calls follow the shape of the dose curve; as a rule, active = well fitted inhibition curve with a large enough effect; inconclusive = small, poorly fitted or top-dose-only effect; inactive = flat fitted curve, though single readings scatter. Potencies of inconclusive entries are left out as doubtful fits.
# Assay: qHTS for Inhibitors of human tyrosyl-DNA phosphodiesterase 1 (TDP1): qHTS in cells in presence of CPT; also: nearly all actives have a fitted effect of over 55% in size
# Settings: chicken DT40 Tdp1-/-;hTDP1 cells + 20 nM CPT, ATP luminescence, 48 h; activity change, negative = growth inhibition: at 46.2 µM (top of the series) unless noted
# How it was run: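 Chicken DT40 Tdp1-/- cells complemented with human TDP1, 400 cells/well, exposed to compounds plus 20 nM camptothecin for at least 48 h at 37 C; viability read as ATP content by CellTiter-Glo luminescence.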
# % is scaled to controls: 0 for no effect and ±100 for the full control effect; potency is read from the fitted curve at half-maximal effect; tags tell the direction and shape of the fitted curve.
Compound,Potency,"activity change, negative = growth inhibition"
COC(=O)CC(N)c1ccc(Br)cc1 (stereo not given),"inconclusive [inhibitor, single point]",–
O=C(NCCc1ccccc1)C(=O)NCC1OCCCN1S(=O)(=O)c1ccc(F)cc1 (stereo not given),inactive,–
O=C(CN1C(=O)NC2(CCCc3ccccc32)C1=O)Nc1cc(F)ccc1F (stereo not given),"inconclusive [inhibitor, partial curve]",–
CC(=O)c1ccc(S(=O)(=O)NCC(=O)Nc2nc3ccccc3[nH]2)cc1,inactive,–
Cc1cccc(C)c1NC(=O)CSc1nc(-c2ccco2)cc(C(F)(F)F)n1,"inconclusive [inhibitor, single point]",–
COc1ccc2cc3cc(C(=O)NCc4ccccc4OC)oc3nc2c1,"inconclusive [inhibitor, single point]",–
O=C(O)c1cc(O)ccc1-c1ccc(O)cc1,inactive,–
COc1cccc(C=NC=Nc2cccc(OC)c2)c1,inactive,–
CC1CCN(S(=O)(=O)N2CCCC(C(=O)NCc3ccc(F)cc3)C2)CC1 (stereo not given),"inconclusive [inhibitor, single point]",–
C=CCn1c(SCC(=O)NCc2ccco2)nnc1-c1cccc(N(C)C)c1,"inconclusive [inhibitor, single point]",–
O=C(NCCc1nc2ccccc2n1CCOc1ccccc1)C1CCCCC1,"inconclusive [inhibitor, single point]",–
O=C(NCc1n[nH]c(=S)n1Cc1ccccc1)c1ccccc1,inactive,–
C1=C(CCNc2ncnc3nc[nH]c23)CCCC1,active: 13 µM,–
CCN1CCN(CCCNC(=O)c2ccc(/C=C3/Sc4ccccc4N(Cc4ccccc4F)C3=O)cc2)CC1,active: 16.4 µM,–
CCc1nnc(NC(=O)CSc2ncnc3scc(-c4ccc(C)cc4)c23)s1,"inconclusive [inhibitor, single point]",–
Cc1ccc(N(Cc2cccs2)C(=O)c2ccccc2Cl)cc1,active: 13 µM,–
Cc1cc(C(=O)Nn2c(C3CCCCC3)nc3ccccc3c2=O)ccc1[N+](=O)[O-],"inconclusive [inhibitor, single point]",–
CCCC(c1nnnn1CC1CCCO1)N1CCN(c2cc(Cl)ccc2C)CC1 (stereo not given),"inconclusive [inhibitor, single point]",–
O=C1NC[C@H](CCCCN2CCN(CC3CCCCC3)C(=O)C2=O)N(CCC2CCCCC2)C1=O,inactive,–
Cc1cccc(NC(=O)CSc2nc(-c3ccco3)cc(C(F)(F)F)n2)c1C,active: 10.3 µM,–
CC(C)N1CCC(N2CCN(C/C=C/c3ccccc3)CC2CCO)CC1 (stereo not given),"inconclusive [inhibitor, partial curve]",–
CCC(Cc1ccccc1)NC(=O)C1CCN(S(=O)(=O)c2ccc3c(c2)CC(C)N3C(C)=O)CC1 (stereo not given),inactive,–
O=C(CSC1CC(=O)N(CC(c2ccccc2)c2ccccc2)C1=O)Nc1ccc(Cl)cc1 (stereo not given),"inconclusive [inhibitor, single point]",–

Compound,Potency,"activity change, negative = growth inhibition"
CCN(CC)CCCOc1ccc(Cl)c(Cl)c1,inactive,–
Cc1cccc(S(=O)(=O)Nc2ccc(-n3c(C)nc4ccccc4c3=O)cc2)c1,"inconclusive [inhibitor, single point]",–
COc1ccc(CCOC(=O)CNC(=O)c2ccc(Cl)cc2Cl)cc1,inactive,–
COc1cccc(NS(=O)(=O)c2ccc3c(c2)CCCN3C(C)=O)c1,"inconclusive [inhibitor, partial curve]",–
Cc1cccc(-c2nnc(SCC(=O)Nc3ncccn3)n2C)c1,inactive,–
COc1cc2c(cc1OC)CN(c1nc(CN3CCCCC3)nc3sc4c(c13)CCCC4)CC2,"inconclusive [inhibitor, single point]",–
CC(=O)Nc1ccc(N(CC(O)Cn2c3ccccc3c3ccccc32)S(=O)(=O)c2ccc(C)cc2)cc1 (stereo not given),"inconclusive [inhibitor, single point]",–
FC(F)(F)c1nc2nncn2c2c1CCCCC2,inactive,–
CCc1nc(OCC(=O)c2ccccc2)c(C#N)c2c1COC(C)(C)C2,"inconclusive [inhibitor, single point]",–
CC(=O)c1c(C)oc2ccc(N(C(C)=O)S(=O)(=O)c3ccc(Br)cc3)cc12,"inconclusive [inhibitor, single point]",–
COc1ccc(C(=O)NCCn2ccc3ccccc32)cc1OC,–,inconclusive: -30.2% [inhibitor]
COc1cc2[nH]c(Cl)c([N+](=O)[O-])c2cc1OC,active: 20.6 µM,–
CSc1nc(Sc2ccccc2Cl)c2ccccc2n1,"inconclusive [inhibitor, single point]",–
O=C1C=C(c2ccc(Cl)c(C(F)(F)F)c2)C[C@@H](c2ccc(F)cc2)C1,"inconclusive [inhibitor, single point]",–
COc1ccc(C2C(C(=O)OCC3CCCO3)=C(C)NC3=C2C(=O)CC(c2ccco2)C3)cc1O (stereo not given),"inconclusive [inhibitor, single point]",–
O=C(Nc1nnc2n1CCS2)c1ccc(F)cc1F,"inconclusive [inhibitor, single point]",–
CC1=C(C)CS(=O)N(S(=O)(=O)c2ccccc2)C1 (stereo not given),active: 23.1 µM,–
CCOC(=O)c1ccccc1NC(=O)CSc1nnnn1C1CCCCC1,inactive,–
Cc1cc(C(=O)N2CCCC(N3CCN(c4ccccc4C)CC3)C2)no1 (stereo not given),"inconclusive [inhibitor, single point]",–
N#Cc1cc2ccncc2c2ccccc12,"inconclusive [inhibitor, single point]",–
NCCCC[C@H](NC(=O)[C@@H]1CCCN1C(=O)[C@@H]1CSSC[C@H](N)C(=O)N[C@@H](Cc2ccccc2)C(=O)N[C@@H](Cc2ccccc2)C(=O)N[C@@H](CCC(N)=O)C(=O)N[C@@H](CC(N)=O)C(=O)N1)C(=O)NCC(N)=O,inactive,–
CCCCn1nc(C(=O)Nc2nc3c(s2)CCCC3)c2ccccc2c1=O,"inconclusive [inhibitor, single point]",–
